{"source": "paper PMC12136788", "binders": {"B1": {"name": "chr2:29787112:29787113:+_ENSMUSG00000026790_ENSMUST00000113756|mus_mus|motif|central (ssRNA)", "RNA": "GGGAGUUCUACAGUCCGACGAUCGCAAUGAGAUAGGAAUUCUGAUUGUCAGGCCGGAUGGUCGUGAGGAACAAGUGGCCGGUAGGAAACAGACAUGGGAGGUUUCCCCGGGCACCAAGGAGAACACUGCUUCCUGCAGGACCCCAACAGAGGAUUGAGCAUCA"}, "B2": {"name": "chr8:95500983:95500984:-_ENSG00000164944_ENST00000437199|hu_hu|hu_hu_hu_mus_True|1_48 (ssRNA)", "RNA": "GGGAGUUCUACAGUCCGACGAUCAGAACACAUCUAUCGAGUAAAGGACCGUACAUGACGGCCUCUACCACUGCCUCCACUAACAAAACUUUCCUCUGAGCCUCCACUGCCGCUAUUUGUACUAGCCCAGGACGGUCCCAAGUCCAACAGAGGAUUGAGCAUCA"}, "B3": {"name": "chr11:102221366:102221367:+_ENSG00000110330_ENST00000227758|hu_hu|motif|central (ssRNA)", "RNA": "GGGAGUUCUACAGUCCGACGAUCCCAGUACAUAAAUGUUCUCAUUCGAGCUGCAUGUGUCUGCAUGCUCAGAUUUGAAAUGCGGAACCUCAGAGUUUCUAGAGAAUUUUCCAAAAAUGGACAGUUGGGAAAAUGCCUCCGGUGCAACAGAGGAUUGAGCAUCA"}, "B4": {"name": "20567905_20568025_938_CDS_ENSG00000121741_ENST00000382871|human|control|control (ssRNA)", "RNA": "GGGAGUUCUACAGUCCGACGAUCAAAAACGUCUCCUGCCACAUUCAUUCUACCAGGAUUAAAAGGUCCUACUCCAGUCUUGGUCUGUGAAGUUAAAGAUGGGGUGUAUGUUUGUAUAUUAACACCAAAAUUACUUGACUGCAGCAACAGAGGAUUGAGCAUCA"}, "B5": {"name": "105037214_105037334_355_CDS_ENSG00000148798_ENST00000369849|human|control|control (ssRNA)", "RNA": "GGGAGUUCUACAGUCCGACGAUCCAACGCGCGGUUCUGCGUCUCCAGCUGAUGCACCUUCUCGAUGAACACGGCGAAGCGGUCGUUGAGGCCCUGCAGCUGCUCCUUCUCGUUGGUGCGGAUGAUCUUGUACUCGUUGGUGCGCAACAGAGGAUUGAGCAUCA"}, "B6": {"name": "chr16:94690093:94690094:+_ENSMUSG00000040785_ENSMUST00000117648|mus_hu|mus_mus_mus_hu_True|1_28 (ssRNA)", "RNA": "GGGAGUUCUACAGUCCGACGAUCGGGCUGGGAUGACGGACACACAGCCUCGAUUCCAGGGGGAAAAAGUCUUAGUCGAUACUAAUUAAAAAGUGUUAAUGAUUUUUAUUACCAAAAUUACAUCUAUAAAAGAUGAAAGCACUUCAACAGAGGAUUGAGCAUCA"}}, "note": "The other results are listed elsewhere or left out."}
{"target": "T1, UNK ZnF1-3 (human, UniProt Q9C0B0 31-174)", "T1 sequence": "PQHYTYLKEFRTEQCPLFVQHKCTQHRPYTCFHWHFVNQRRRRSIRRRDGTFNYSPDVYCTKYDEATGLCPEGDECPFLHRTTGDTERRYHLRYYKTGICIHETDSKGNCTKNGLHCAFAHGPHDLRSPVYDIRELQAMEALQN", "test": "nsRBNS (natural sequence RNA bind-n-seq); RBNS binding buffer (assumed for nsRBNS): 25 mM Tris pH 7.5, 150 mM KCl, 3 mM MgCl2, 0.01% Triton X-100, 500 ug/ml BSA, 20 U/ml SUPERase-In, 4 C; UNK is unkempt and MSI1 is Musashi-1; names of the RNAs are library labels; protein concentration not given here; high values mean tight binding", "units": {"binding signal": "enrichment R"}}
{"binder": "B1", "binding signal": 1.02}
{"binder": "B2", "binding signal": 1.02}
{"binder": "B3", "binding signal": 0.817}
{"binder": "B4", "binding signal": 1.43}
{"binder": "B5", "binding signal": 0.556}
{"binder": "B6", "binding signal": 0.961}
